{"source": "paper PMC12040169", "about": "(PLOS Biology, 2025)", "note": "The list shows a part of the results."}
{"test_system": "T1, C. trachomatis L2/434/Bu expressing GFP (CTL2-GFP)", "T1 construct": "L2/434/Bu GFP intracellular growth in HeLa cells", "design": "species or system HeLa; C. trachomatis total inclusion area by high-content imaging, normalised to DMSO", "conditions": "total inclusion area; 28.5 h, 10 µM; inhibitor", "how_it_was_run": "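High-content imaging followed the bulk GFP/resorufin measurement: fixed, Hoechst-stained cells were scored for GFP inclusions and host nuclei per well. Total inclusion area and count served as growth proxies, nuclei number as the viability proxy. MIC calculation matched the bulk assay.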"}
{"smiles": "CC(NC(=O)c1c2c(nn1C)CCCC2)c1ccccn1", "note": "(centres unmarked) [CBK281888]", "% of control remaining": 88.558}
{"smiles": "O=C(O)c1ccccc1NS(=O)(=O)c1cccc2cccnc12", "note": "[CBK042358]", "% of control remaining": 84.7036}
{"smiles": "O=C1C(n2c(=O)[nH]c3ccccc3c2=O)CCN1CC(F)(F)F", "note": "(centres unmarked) [CBK305264]", "% of control remaining": 30.0735}
{"smiles": "COCCN(Cc1nnc(-c2cccs2)o1)C(C(=O)N1CCOCC1)c1ccccc1", "note": "(centres unmarked) [CBK295190]", "% of control remaining": 105.516}
{"smiles": "Cc1ccc(N(CCc2cc(C(F)(F)F)cc(C(F)(F)F)c2)C(=O)CN)cc1NC(=O)CN(C)C", "note": "[CBK003630T]", "% of control remaining": 56.2152}
{"smiles": "Cc1ccc(OCC(=O)Nc2ccccc2N2CCN(S(C)(=O)=O)CC2)cc1", "note": "[CBK268722]", "% of control remaining": 78.7756}
{"smiles": "Cc1cc(CC(=O)NCc2c(-c3ccccc3)noc2C)on1", "note": "[CBK144090]", "% of control remaining": 95.136}
{"smiles": "Cc1ccc2nc(C)cc(C(=O)NNC(=O)Nc3ccc([N+](=O)[O-])cc3)c2c1", "note": "[CBK266890]", "% of control remaining": 113.545}
{"smiles": "Cn1cc(-c2cncn2CCCOc2ccc(Cl)cc2)cn1", "note": "[CBK281784]", "% of control remaining": 124.83}
{"smiles": "COc1ccccc1C1=NN(C(=O)CCCC(=O)O)C(c2ccco2)C1", "note": "(centres unmarked) [CBK266642]", "% of control remaining": 94.8359}
{"smiles": "CS(=O)(=O)c1ccc(-c2cccc(COC3CCN(C(=O)Cc4ccc(F)cc4F)CC3)c2)cc1", "note": "[CBK149506]", "% of control remaining": 74.126}
{"smiles": "O=C(/C=C/c1ccco1)Nc1cc2ccccc2cc1NC(=O)/C=C/c1ccco1", "note": "[CBK261474]", "% of control remaining": 100.731}
{"smiles": "O=C(Cn1c(-c2ccc(F)cc2)cc2cccnc21)N1CCOCC1", "note": "[CBK285383]", "% of control remaining": 67.0574}
{"smiles": "Cc1nc(C)n(CCNC(=O)C(C)Cc2cccs2)n1", "note": "(centres unmarked) [CBK282067]", "% of control remaining": 98.9121}
{"smiles": "Cc1ccc(C(=O)N(C)Cc2cc(-c3ccncc3)no2)c(=O)n1C", "note": "[CBK307324]", "% of control remaining": 49.3508}
{"smiles": "CCN(CC(=O)Nc1ccccc1OC)S(=O)(=O)c1ccccc1", "note": "[CBK269428]", "% of control remaining": 122.495}
{"smiles": "COc1ccc(NS(=O)(=O)c2ccc(Cl)cc2Cl)c(C(=O)NCc2ccccc2)c1", "note": "[CBK113943]", "% of control remaining": 78.2436}
{"smiles": "Fc1ccc(OCCCCCN2CCC3(CC2)OCCc2c3[nH]c3ccccc23)cc1", "note": "[CBK113516T]", "% of control remaining": 0.1153}
{"smiles": "CN(CC(=O)O)c1ccccc1C(=O)O", "note": "[CBK260996]", "% of control remaining": 99.0708}
{"smiles": "COc1cc(C=CC(=O)N(C)c2ccccc2C(=O)O)cc(OC)c1OC", "note": "[CBK296136]", "% of control remaining": 96.2152}
{"smiles": "Cc1cc(C)c2oc(-c3ccc(C)c(NC(=O)COc4ccccc4C)c3)nc2c1", "note": "[CBK263067]", "% of control remaining": 90.1829}
{"smiles": "CC(C)S(=O)(=O)n1c(=O)n(CC(=O)c2csc3ccccc23)c2ccccc21", "note": "[CBK106559]", "% of control remaining": 67.3124}
{"smiles": "OCc1nnc2c3ccccc3c(-c3ccccc3)nn12", "note": "[CBK269927]", "% of control remaining": 77.1289}
{"smiles": "O=C(CSCc1ccc(Cl)cc1Cl)Nc1ccc(Oc2ccc3c(c2)C(=O)NC3=O)cc1", "note": "[CBK266779]", "% of control remaining": 113.883}
{"smiles": "COc1ccc(CCN2C(=O)c3[nH]nc(-c4cc(C)c(C)cc4O)c3C2c2ccccc2)cc1", "note": "(centres unmarked) [CBK269154]", "% of control remaining": 86.129}
{"smiles": "Cc1n[nH]c(C)c1CC(=O)NC(Cc1cccs1)c1ccccn1", "note": "(centres unmarked) [CBK285208]", "% of control remaining": 63.0198}
{"smiles": "CCC(Sc1nc(C)cc(C)n1)C(=O)Nc1ccc(NC(C)=O)cc1", "note": "(centres unmarked) [CBK269804]", "% of control remaining": 91.407}
{"smiles": "COCCNS(=O)(=O)c1cccc2c1CN(C(=O)c1ccccc1)CC2", "note": "[CBK306539]", "% of control remaining": 44.5663}
{"smiles": "c1ccc(Oc2cccc(C(N3CCOCC3)N3CCOCC3)c2)cc1", "note": "[CBK261798]", "% of control remaining": 84.9858}
{"smiles": "CC(C)c1ccc(N2C(=O)SC(c3ccccc3)C2=O)cc1", "note": "(centres unmarked) [CBK113687]", "% of control remaining": 85.8205}
{"smiles": "O=C1CNC(=O)C2(C/C=C/C[C@H]3COCC[C@H]3N1)CCN(C(=O)C1CCOCC1)CC2", "note": "[CBK292143]", "% of control remaining": 113.286}
{"smiles": "CCOc1ccc(CNCc2ccc(C(=O)O)cc2)cc1OC", "note": "[CBK269590C]", "% of control remaining": 85.3126}
{"smiles": "CC(C)CCN(C)C(=O)c1cccc(S(=O)(=O)NCc2ccsc2)c1", "note": "[CBK307656]", "% of control remaining": 100.665}
{"smiles": "CC(C)c1ccc(/C=C/C(=O)NC(=S)Nc2cccc(C(=O)O)c2)cc1", "note": "[CBK265024]", "% of control remaining": 131.786}
{"smiles": "FC(F)(F)c1cccc(CSc2nc3ccccc3nc2N2CCCC2)c1", "note": "[CBK107190]", "% of control remaining": 89.2501}
{"smiles": "N=C(N)NCCc1c[nH]c2ccccc12", "note": "[CBK024011G]", "% of control remaining": 2.825}
{"smiles": "O=C(CSc1nc(O)cc(=O)n1-c1ccccc1)c1ccccc1", "note": "[CBK261745]", "% of control remaining": 89.6116}
{"smiles": "NC(=O)c1ccccc1NC(=O)Cc1ccc2c(c1)CCCC2", "note": "[CBK298334]", "% of control remaining": 57.9155}
{"smiles": "CC(=O)NCCNC(=O)c1ccc(C)nc1N1CCOCC1", "note": "[CBK076453]", "% of control remaining": 103.799}
{"smiles": "Cc1cccc(/N=C(\\N)Nc2nc(=O)cc(C)[nH]2)c1", "note": "[CBK288144]", "% of control remaining": 76.4692}
{"smiles": "OC(CNCCc1cccnc1)COc1cccc2c1CCCC2", "note": "(centres unmarked) [CBK002237]", "% of control remaining": 96.9465}
{"smiles": "CCCC(=O)Nc1ccccc1NC(=O)c1ccc2c(c1)OCO2", "note": "[CBK265841]", "% of control remaining": 74.6382}
{"smiles": "O=C(NCCS(=O)(=O)c1ccccc1)c1cnc(-c2ccc(Cl)cc2)c(-c2ccco2)c1", "note": "[CBK037546]", "% of control remaining": 132.392}
{"smiles": "COc1ccc(CC(=O)N2CCC(Cc3cccc(-c4cccs4)c3)(C(N)=O)CC2)cc1", "note": "[CBK285744]", "% of control remaining": 110.763}
{"smiles": "N=C1/C(=C/c2ccc(-c3cccc([N+](=O)[O-])c3)o2)C(=O)N=C2SC(SCc3ccccc3)=NN12", "note": "[CBK265354]", "% of control remaining": 115.104}
{"smiles": "COc1ccc(C(=O)Nc2ccc3[nH]ccc3c2)cc1Cl", "note": "[CBK159681]", "% of control remaining": 86.2866}
{"smiles": "COc1ccccc1N1CCN(c2nccc3sc(S(=O)(=O)NC4CCC4)cc23)CC1", "note": "[CBK038248C]", "% of control remaining": 114.118}
{"smiles": "Cc1ccc2[nH]c(SCc3nc(-c4cccs4)no3)nc2c1", "note": "[CBK269509]", "% of control remaining": 67.6802}
{"smiles": "CCCC(=O)Nc1cc(S(=O)(=O)NC)ccc1C", "note": "[CBK024770]", "% of control remaining": 61.7584}
{"smiles": "CNC(=S)N(CCS(=O)(=O)c1ccc(Cl)cc1)Cc1cccs1", "note": "[CBK006431]", "% of control remaining": 90.9804}
{"smiles": "O=C1Nc2ccc(Br)cc2/C1=C1/SC(=S)N(C(Cc2ccccc2)C(=O)O)C1=O", "note": "(centres unmarked) [CBK263521]", "% of control remaining": 96.4028}
{"smiles": "COCCOc1nnc(C)c2ccccc12", "note": "[CBK019388]", "% of control remaining": 83.6361}
{"smiles": "CC(C)CCNC(=O)N1CCN(Cc2ccccc2)CC1", "note": "[CBK155657]", "% of control remaining": 93.1013}
{"smiles": "COc1cccc(NC(=O)c2cc(-c3ccc(C(=O)N4CCOCC4)cc3)cnc2N)c1", "note": "[CBK160203]", "% of control remaining": 90.5932}
{"smiles": "CC(=O)N1CCC2(C/C=C/C[C@H]3CN(C(=O)Cc4cccc(F)c4)CC[C@H]3NC(=O)CNC2=O)CC1", "note": "[CBK292103]", "% of control remaining": 64.5723}
{"smiles": "CCCc1nc(C(=O)NC2CC(=O)N(CCc3ccc(F)cc3)C2)cs1", "note": "(centres unmarked) [CBK306548]", "% of control remaining": 83.6569}
{"smiles": "CCOC(=O)c1c(-c2ccc(-c3ccccc3)cc2)csc1NC(=O)c1ccccc1C(=O)O", "note": "[CBK296096]", "% of control remaining": 91.0067}
{"smiles": "Cc1ccc2ccccc2c1CN(/N=N/c1nonc1C)c1nonc1C", "note": "[CBK262412]", "% of control remaining": 99.7355}
{"smiles": "CC(=O)c1cc(C(=O)N2CCC(O)(c3ccccc3C)CC2)cs1", "note": "[CBK282532]", "% of control remaining": 82.0961}
{"smiles": "CCOC(=O)c1c(NC(=O)c2cc(-c3ccc(C)c(C)c3)nc3ccccc23)sc2c1CCC(C)C2", "note": "(centres unmarked) [CBK262627]", "% of control remaining": 90.3902}
{"smiles": "CCn1cnc2c1CC/C(=N\\O)C2", "note": "[CBK010044]", "% of control remaining": 31.2871}
{"smiles": "CC(=O)N[C@H]1CC[C@]2(C)CCC([C@H](C)C(=O)NC3CCCC3)[C@H](O)[C@H]2[C@@H]1C", "note": "(some centres unmarked) [CBK289436]", "% of control remaining": 113.285}
{"smiles": "CN(C)c1ccccc1-c1cc(Nc2ccc(C(C)(C)C)cc2)ncn1", "note": "[CBK090872]", "% of control remaining": 89.1436}
{"smiles": "CC(=O)C1=C(C)N2C(=Nc3ccccc3C2(C)C)S1", "note": "[CBK010180C]", "% of control remaining": 59.4233}
{"smiles": "CCOc1ccc(NC(=O)c2c[nH]c(=O)n(-c3ccc(F)cc3)c2=O)cc1", "note": "[CBK287553]", "% of control remaining": 104.252}
{"smiles": "CC(C)(N)C(=O)N1CC(C(=O)NCCN(Cc2ccccc2)S(C)(=O)=O)C(c2ccccc2)C1", "note": "(centres unmarked) [CBK014706T]", "% of control remaining": 83.1754}
{"smiles": "CC(C)(C)c1ccc(C(=O)CSCC(=O)Nc2ccc3ccccc3c2)cc1", "note": "[CBK268394]", "% of control remaining": 94.6254}
{"smiles": "c1csc(-c2cn3ccnc3c(NCC3CC3)n2)c1", "note": "[CBK066754]", "% of control remaining": 146.943}
{"smiles": "Nc1ncc(-c2ccc(C(F)(F)F)cc2)nc1-c1ccc(C(=O)N2CCOCC2)cc1", "note": "[CBK090524]", "% of control remaining": 97.7243}
{"smiles": "c1ccc(CNc2cccc(N3CCNCC3)n2)cc1", "note": "[CBK003176T]", "% of control remaining": 73.579}
{"smiles": "O=C(CN1C(=O)c2ccccc2C1=O)Nc1ccc(S(=O)(=O)N2CCCCCC2)cc1", "note": "[CBK266693]", "% of control remaining": 92.0589}
{"smiles": "O=C(c1ccc(SCc2cccnc2)c([N+](=O)[O-])c1)N1CCCCC1", "note": "[CBK294452]", "% of control remaining": 38.9218}
{"smiles": "CCS(=O)(=O)N1CC2C3c4ccccc4C(c4ccccc43)C2C1", "note": "(centres unmarked) [CBK282328]", "% of control remaining": 97.0922}
{"smiles": "O=C1NCCN1CCOc1nccnc1/C=C/c1ccccc1", "note": "[CBK106879]", "% of control remaining": 99.1587}
{"smiles": "CC(O)CN(Cc1ccc(-n2cnc3ccccc32)cc1)Cc1ccc2c(c1)OCO2", "note": "(centres unmarked) [CBK286475]", "% of control remaining": 96.2119}
{"smiles": "O=C(O)CCCN1C(=O)/C(=C/c2ccccc2[N+](=O)[O-])SC1=S", "note": "[CBK262801]", "% of control remaining": 115.137}
{"smiles": "CC(C)C(NC(=O)CSc1n[nH]c(=O)n1Cc1ccccc1)c1ccc2c(c1)OCCCO2", "note": "(centres unmarked) [CBK297875]", "% of control remaining": 114.691}
